# Source: the supplement of paper PMC12217912
# The list shows a part of the results. The full chains were built here from the parent and the listed change. Values near 0.05 are background.
# B1: TEV protease; numbered along this chain (parent)
# chain: MGESLFKGPRDYNPISSSICHLTNESDGHTTSLYGIGFGPFIITNKHLFRRNNGTLVVQSLHGVFKVKDTTTLQQHLVDGRDMIIIRMPKDFPPFPQKLKFREPQREERICLVTTNFQTKSMSSMVSDTSCTFPSGDGIFWKHWIQTKDGQCGSPLVSTRDGFIVGIHSASNFTNTNNYFTSVPKNFMELLTNQEAQQWVSGWRLNADSVLWGGHKVFMVKPEEPFQPVKEATQL
# Variants of: B1
# Assay: raw area under fraction-flipped curve 0-4 h after induction (AUC4h, not background-subtracted), DNA-recorder readout of cleavage of the substrate (dimensionless); higher = more cleavage of the substrate by the protease variant
# Details: temperature: 34 °C; time window: 0-4 h after rhamnose induction
# 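Further: Bxb1 expression induced with 0.2% (w/v) L-rhamnose at OD600 near 0.5, cultures sampled hourly, flipped fraction per protease–substrate barcode pair counted by paired-end Illumina sequencing.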
Variant,area with substrate ECLYFQS,area with substrate ELLYFQS,area with substrate ESLYFQS,area with substrate EDLYFQS,area with substrate EELYFQS,area with substrate EGLYFQS,area with substrate EHLYFQS,area with substrate EKLYFQS,area with substrate EPLYFQS,area with substrate EQLYFQS
G153Q,0.05,0.0464,0.0598,,,,,,,
G153I,,,0.0591,0.0458,0.037,0.0477,0.0575,0.0544,0.0526,0.0378
G153S,,,,0.0616,,,,,,
S121F,,,,0.123,0.122,,0.104,0.118,,0.104
I84N,,,,0.0613,0.0418,,,,,
D91E,,,,0.126,,,,,,
L99W,,,,,0.0924,,,,,0.106
L99I,0.0915,,0.101,0.0513,,,,,0.0835,
W203P,,,,,0.0295,,,,,
W203D,,,0.0673,0.0692,,,,,0.0616,
K185A,,,,,0.091,,0.107,,0.126,
K185L,,,0.113,,0.122,0.056,,0.111,0.136,0.138
K185V,,,0.053,0.12,,,0.0911,,0.103,
F218V,0.0932,,0.11,0.117,0.129,0.0677,0.103,0.108,0.129,0.0912
N178R,,,0.115,0.13,0.12,0.0821,,0.137,,
N178C,,,,0.125,,0.0724,,,,
F187A,0.102,,0.071,,,0.0689,0.0804,0.0641,0.0892,0.109
V78N,0.0755,0.0547,0.0733,,0.0809,0.0684,0.0701,0.0603,,0.0617
C111A,,,0.104,0.0944,,,0.0943,,0.117,
G80L,,,0.121,0.106,,0.0988,,,,0.0806
R51N,,,0.124,0.19,,0.104,,,,0.116
P222T,0.0889,,0.124,,0.138,,,0.11,0.117,0.0965
M83E,,,0.0659,0.077,0.0561,,,,0.0709,
L235Y,0.108,,0.111,,,,0.113,,0.148,0.0897

Variant,area with substrate ECLYFQS,area with substrate ELLYFQS,area with substrate ESLYFQS,area with substrate EDLYFQS,area with substrate EELYFQS,area with substrate EGLYFQS,area with substrate EHLYFQS,area with substrate EKLYFQS,area with substrate EPLYFQS,area with substrate EQLYFQS
L235F,0.0936,,,,0.171,,,,0.111,
G150A,,,0.0572,0.0537,,,,,0.0699,0.0789
V210P,0.0662,,0.0775,,,0.0688,0.07,,0.0759,0.0647
K7Y,,,0.112,,0.0656,,,0.113,,
Q97G,0.109,,0.112,,,,,,,
F163A,,0.105,,0.103,,,,,,0.119
F163P,,,,0.0665,0.0581,,0.0546,,,
F163M,,,0.0853,,0.122,,0.106,,0.129,
K142N,0.0682,0.083,0.0909,,,,,,,
D137Q,0.106,0.0576,0.104,0.151,,,,,,0.0848
S135L,,,,0.0678,,0.0591,,0.0475,0.0752,
T119G,,,,0.129,,,,,,
T119A,,0.0855,0.116,0.132,,0.102,,,,0.0814
F65Q,,,0.0916,0.102,,,,0.0777,,0.123
F65V,,0.0859,0.0898,,0.105,,,0.121,,
F65P,0.0486,0.0454,0.0481,0.0641,0.0536,,0.0468,0.0472,0.0528,0.0573
E3W,0.0952,,,,,,0.134,0.0339,0.195,
Q118L,,0.101,,0.138,,0.108,0.137,,,
F226V,,,0.103,0.141,,,,,,0.12
T129H,0.0597,0.0863,,0.138,,0.104,0.0799,0.161,,
T129D,0.101,,,,0.143,,,,,0.132
T129K,0.104,0.0923,0.0824,,,,,0.108,,0.0901
T181E,0.0574,0.0601,,,,0.0545,,,,

# Same assay, conditions: temperature: 34 °C; time window: 0-4 h after rhamnose induction
Variant,area with substrate EVLYFQS,area with substrate EWLYFQS,area with substrate EILYFQS,area with substrate EMLYFQS,area with substrate ERLYFQS,area with substrate ETLYFQS,area with substrate EYLYFQS,area with substrate EFLYFQS
G153I,0.0419,0.042,,,,,,
S121F,0.0771,0.105,0.0873,0.122,0.0682,0.123,,
I84N,0.0608,,0.0948,,,,0.0739,
L99W,,0.0766,0.0735,,,,,0.0899
L99I,,,,,,,,0.133
W203P,0.0525,,,,,,,
W203D,0.0535,0.0755,,0.0583,,,,
K185A,0.105,,,,,,,
K185L,,,0.0782,0.087,,,0.106,0.0935
K185V,,,0.128,0.0978,,,,
F218V,0.113,0.116,,,0.0943,0.129,0.1,0.0979
N178R,,,0.0702,,0.107,0.109,,0.104
F187A,0.0744,,0.0776,,0.076,,0.0943,0.0814
V78N,,0.0655,0.072,0.0631,,0.0628,0.0784,
C111A,,,0.0672,,,,,
G80L,0.122,,0.0937,,0.0936,,,0.0835
P222T,0.0768,,,,0.118,,,
M83E,0.0642,,,0.0539,0.0379,,0.0633,
L235Y,,,,,0.0936,,,
L235F,0.079,,0.0804,,0.0999,,,

Variant,area with substrate EVLYFQS,area with substrate EWLYFQS,area with substrate EILYFQS,area with substrate EMLYFQS,area with substrate ERLYFQS,area with substrate ETLYFQS,area with substrate EYLYFQS,area with substrate EFLYFQS
G150A,0.0794,,,,,,,0.0556
V210P,0.0619,0.0373,,0.0626,0.0496,,0.0525,0.0861
K7Y,0.0964,,,,,,,
F163P,0.0488,0.0662,0.0463,0.0559,,0.0365,,
F163M,,,,,0.101,,,0.108
K142N,0.0869,0.109,0.0882,0.114,,,,
D137Q,0.0852,0.106,0.0898,0.103,0.0615,0.109,0.0988,
S135L,,,0.0553,,,,,
T119G,,,,,,0.0927,0.094,
T119A,,,0.0958,0.122,0.112,,0.0831,
F65Q,0.104,,,,0.0823,,,
F65V,,,0.0882,,,,,
F65P,0.0454,0.051,0.043,,,0.0332,0.0319,0.0719
E3W,0.103,0.138,0.0674,0.112,0.109,,0.0988,0.0977
Q118L,,,,0.113,0.129,,,
F226V,0.12,,0.113,,,,,
T129H,,,0.0931,,,0.137,,
T129D,,0.0721,,0.12,,0.133,,0.12
T129K,0.0986,0.111,0.101,0.114,,0.089,,
T181E,,,0.0454,,0.0679,0.0653,,
